52 compounds from the supplement of paper PMC10986608 can be followed below.

Some of the results follow. Single values are uncertain, as repeats are few or missing.

The assay relates to Candida albicans DPL-15. In words: growth (OD600) after compound treatment (apparently relative to screen median) (relative growth (fraction; screen median 1.02)); DPL-15 is a caspofungin-resistant clinical isolate; higher = more fungal growth (less antifungal activity). The settings on record: 25 µM; RPMI 1640; 48 h; 30 °C.
Turning to `CCc1cc2c(nc1CC)CCCN2S(=O)(=O)c1ccccc1C`, the growth stood at 0.99.

For `COC(=O)N[C@@H](c1ccco1)C(C(C)=O)C(=O)OC` (some centres not stated), the growth amounted to 0.978.

Consider `COC(=O)[C@]1([C@H]2CCC(=O)O2)CC(=O)c2c(OC)cccc2O1`, for which the growth amounted to 1.08.

With `CC(=O)OC[C@]12CC[C@@H](C(C)=O)[C@@H]1[C@H]1CC[C@@H]3[C@@]4(C)CC[C@@H](O)[C@@](C)(O)[C@@H]4CC[C@@]3(C)[C@]1(C)CC2`, the growth is 0.887.

Turning to `CC(C)CC1=NCCNC2=C1C(c1ccc(F)cc1)NC2=O` (configuration not stated), the growth worked out at 1.1.

In the case of `COC(=O)C1=C(C)N(Cc2ccccc2C(F)(F)F)C(NCc2ccccc2)=NC1c1cccc(Cl)c1` (configuration not stated), the growth is 0.819.

On to `CC(C)(C)C1=C[C@H]2[C@H]3C(=O)C(c4ccc(O)cc4)=C[C@@]3(c3ccc(O)cc3)[C@@H]1C(=O)[C@]2(C)O`, for which the growth came out at 1.05.

Regarding `COc1ccc(-c2oc(-c3ccc4c(c3)OCO4)c(C)c2C)cc1OC`, the growth worked out at 1.1.

On to `COC(=O)C1=C(C)NC(=O)NC1c1cccc(C)c1` (configuration not stated), for which the growth stood at 1.07.

For the compound `CCCN1C(NCC2CCCCC2)=NC(c2ccc(F)cc2)C(C(=O)OC)=C1C` (configuration not stated), the growth was 1.17.

Turning to `CCN1C(=O)N[C@@H](c2cccc(C(F)(F)F)c2)[C@@H](C(=O)OC)[C@H]1C`, the growth stood at 0.95.

`CC(C)Cc1nn(-c2ccc(OC(F)(F)F)cc2)c2c1C(c1ccc3c(c1)OCO3)NC2=O` (configuration not stated): the growth is 1.1.

Regarding `O=C(/C=C/c1ccc2c(c1)OCO2)c1ccccc1`, the growth turned out to be 0.934.

For the compound `COCOc1ccc(OC)cc1C(=O)/C=C/c1ccc(OC)c(Br)c1`, the growth worked out at 0.902.

As for `O=C(/C=C(O)/C=C/c1ccc(Br)cc1)/C=C/c1ccc(Br)cc1`, the growth was found to be 0.232.

Consider `COC(=O)C1=C(C)N(Cc2ccc(F)cc2)C(=S)NC1c1ccccc1` (configuration not stated), for which the growth was determined as 0.974.

In the case of `COc1ccc([C@@]23Oc4cc(OC)cc(OC)c4[C@]2(O)[C@H](O)[C@H](C(=O)c2ccco2)[C@H]3c2ccc(O)cc2)cc1`, the growth was 0.842.

With `C=CCN1C(=O)[C@@]2(CC(C)=C[C@@H](COc3ccccc3)O2)c2ccccc21`, the growth was 1.03.

Consider `COc1cc(O)cc2c1[C@]1(O)[C@H](O)C[C@@H](c3ccccc3)[C@]1(c1ccc(Br)cc1)O2`, for which the growth came out at 1.1.

`CCOC(=O)C1=C(C)NC(=O)NC1c1ccc(C(F)(F)F)cc1` (configuration not stated): the growth amounted to 1.05.

As to `O=c1c(O)c(-c2ccc(Br)cc2)oc2cc(F)cc(OCC(F)(F)F)c12`, the growth was determined as 1.06.

As for `COC(=O)C1=C(C)N(Cc2ccccc2)C(=S)NC1c1cccc(OC)c1` (configuration not stated), the growth was 0.812.

As to `COc1cccc(CO[C@H]2C=C[C@@H](c3ccccc3)O[C@@H]2CBr)c1`, the growth is 1.26.

For `CS(=O)(=O)Oc1c(CC23CCCC2=Nc2ccccc23)occc1=O` (configuration not stated), the growth was found to be 1.25.

Take `CO[C@@H]1[C@H](O)CC[C@]2(O)CN(c3cccc(C#N)c3)[C@](C)([C@H](O)CC=C(C)C)[C@@H]12`: the growth turned out to be 0.896.

Regarding `COc1ccc(N2C(=O)c3[nH]nc(-c4ccc(Cl)cc4Cl)c3C2c2ccc(F)cc2)cc1` (configuration not stated), the growth came out at 1.05.

Consider `COc1ccc(N2C(=O)c3nn(C)c(C(C)C)c3C2c2ccc(F)cc2)cc1` (configuration not stated), for which the growth amounted to 0.959.

Take `c1ccc(-c2cc3c(nc2-c2ccccc2)CCCC3)cc1`: the growth amounted to 1.04.

Regarding `CCCCNC1=NC(c2ccc(Cl)cc2)C(C(=O)OC)=C(C)N1Cc1cccc(C(F)(F)F)c1` (configuration not stated), the growth is 0.715.

Turning to `COC(=O)C1=C(C)N(Cc2ccccc2)C(=O)N[C@H]1c1cccs1`, the growth was 0.845.

With `Cc1ccc(C2C3=C(C(=O)N2Cc2ccccc2)N(C)CCN=C3CC(C)C)cc1` (configuration not stated), the growth stood at 0.944.

For `COC(=O)C1=C(C)N(CCc2cccs2)C(NCc2ccc(C(F)(F)F)cc2)=NC1c1ccc(C)cc1` (configuration not stated), the growth was determined as 0.854.

For `O=C1c2[nH]nc(-c3ccccc3)c2C(c2cccc(C(F)(F)F)c2)N1c1ccccc1` (configuration not stated), the growth came out at 0.961.

As for `C=C1CC[C@H]2[C@H]3C4=C(O[C@@]3(C(C)C)O[C@]2(C)CC[C@@H]2[C@@H]1CC2(C)C)C(C)(C)C(=O)C(C)(C)C4=O`, the growth was determined as 1.04.

In the case of `Clc1ccnc(CCCc2ccccc2)c1`, the growth was 1.09.

In the case of `CC(C)(C)[Si](C)(C)O[C@H]1C=C(CO)[C@H](O)[C@H]2O[C@H]21`, the growth is 0.933.

Regarding `COC(=O)N(/C=C/c1ccc(OC)cc1)CCc1ccc(OC)c(OC)c1`, the growth came out at 1.25.

On to `CC(C)Cc1n[nH]c2c1C(c1ccc(F)cc1)N(CCN1CCCC1)C2=O` (configuration not stated), for which the growth amounted to 1.08.

For the compound `CCOC(=O)C1=C(C)NC(=O)NC1c1ccc(F)cc1` (configuration not stated), the growth was 1.1.

Regarding `c1ccc(CCCc2cccc(-c3cccnc3)n2)cc1`, the growth came out at 0.789.

As for `CCc1ccccc1-n1nc(C)c2c1C(=O)NC2c1ccc2c(c1)OCO2` (configuration not stated), the growth was 1.12.

As to `CCC[C@@H](O)COc1cc2c(cc1C1(c3cc4c(cc3OC[C@H](O)CCC)OCO4)C(=O)Nc3ccc(Br)cc31)OCO2`, the growth worked out at 1.05.

In the case of `COCOc1cc(OC)cc(O)c1C(=O)/C=C/c1ccccn1`, the growth was 1.03.

In the case of `COC(=O)c1cc2c(c3c4ccccc4n(S(=O)(=O)c4ccc(C)cc4)c13)C(=O)N(Cc1ccccc1)C2`, the growth came to 0.98.

For `COc1cc(C2NC(=O)N3CCC=CC3=C2C(C)=O)c(F)c(C(F)(F)F)c1` (configuration not stated), the growth came to 1.06.

In the case of `COc1ccccc1NS(=O)(=O)c1c(C(=O)N2CCCC2)c(C)n(C)c1C`, the growth came to 0.985.

`Cn1nc2c(c1-c1ccccc1)C(c1ccccc1)N(c1ccccc1)C2=O` (configuration not stated): the growth came out at 0.961.

For the compound `CC(=O)OC[C@H]1O[C@H](c2ccc(C(F)(F)F)cc2)C=C[C@H]1OC(C)=O`, the growth was found to be 1.03.

On to `COC(=O)C/C=C/[C@H](C)[C@@H](NC(=O)C(C)(C)NC(=O)OC(C)(C)C)c1ccccc1`, for which the growth was 0.88.

Regarding `CN1CCN=C(c2ccccc2)C2=C1C(=O)N(c1ccccc1)C2c1ccc(F)cc1` (configuration not stated), the growth was 1.01.

Turning to `Cc1cc(C2(c3cc(C)c(O)c(C)c3)C(=O)Nc3cc(F)ccc32)cc(C)c1O`, the growth was found to be 1.13.

With `C=CC[C@@H](Cc1c(OC)cc(O)c(C(=O)c2ccccc2)c1O)C(=C)C`, the growth is 0.921.
